Source: patent publication US12383631 (BRIGHT PEAK THERAPEUTICS, dated 2025)

T1: IL-18 receptor (IL-18Rα/IL-18Rβ) on cells (HEK-Blue IL18R reporter cells, NK-92, KG-1) (human, UniProt Q13478 19-541; O95256 20-599)
T1 sequence (looked up) 1: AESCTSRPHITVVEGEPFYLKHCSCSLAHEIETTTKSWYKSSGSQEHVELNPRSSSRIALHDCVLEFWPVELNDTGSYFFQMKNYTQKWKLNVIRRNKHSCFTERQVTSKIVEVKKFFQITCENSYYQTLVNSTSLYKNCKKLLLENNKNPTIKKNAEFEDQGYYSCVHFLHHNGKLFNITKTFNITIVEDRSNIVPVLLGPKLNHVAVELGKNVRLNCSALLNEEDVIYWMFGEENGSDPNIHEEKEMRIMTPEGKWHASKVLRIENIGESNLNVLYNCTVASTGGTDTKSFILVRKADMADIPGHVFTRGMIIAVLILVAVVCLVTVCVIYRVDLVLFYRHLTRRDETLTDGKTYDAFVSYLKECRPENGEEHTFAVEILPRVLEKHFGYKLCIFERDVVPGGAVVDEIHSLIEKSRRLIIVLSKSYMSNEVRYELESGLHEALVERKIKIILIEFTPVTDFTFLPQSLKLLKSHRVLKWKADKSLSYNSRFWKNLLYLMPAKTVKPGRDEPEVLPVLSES
T1 sequence (looked up) 2: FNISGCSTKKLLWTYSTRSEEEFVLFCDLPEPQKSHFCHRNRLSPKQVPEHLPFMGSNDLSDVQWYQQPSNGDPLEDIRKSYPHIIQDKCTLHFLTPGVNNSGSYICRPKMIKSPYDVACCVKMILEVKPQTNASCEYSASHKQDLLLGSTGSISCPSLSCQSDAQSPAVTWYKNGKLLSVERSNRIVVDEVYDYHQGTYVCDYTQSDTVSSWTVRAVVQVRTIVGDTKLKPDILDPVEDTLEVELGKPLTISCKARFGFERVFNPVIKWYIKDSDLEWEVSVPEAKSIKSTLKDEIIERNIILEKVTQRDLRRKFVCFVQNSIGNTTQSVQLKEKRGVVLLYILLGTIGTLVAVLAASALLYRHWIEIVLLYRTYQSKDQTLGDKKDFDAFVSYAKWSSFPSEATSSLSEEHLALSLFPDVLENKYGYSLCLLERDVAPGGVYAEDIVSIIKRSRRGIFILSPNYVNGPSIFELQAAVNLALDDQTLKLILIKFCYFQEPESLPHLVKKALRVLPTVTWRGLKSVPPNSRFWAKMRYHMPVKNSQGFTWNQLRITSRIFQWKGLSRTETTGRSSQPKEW

T2: human IL-18BP-His (human, UniProt O95998 31-194, limits assumed)
T2 construct: also called His-tagged human IL-18BP; not shown: His tag
T2 sequence (looked up): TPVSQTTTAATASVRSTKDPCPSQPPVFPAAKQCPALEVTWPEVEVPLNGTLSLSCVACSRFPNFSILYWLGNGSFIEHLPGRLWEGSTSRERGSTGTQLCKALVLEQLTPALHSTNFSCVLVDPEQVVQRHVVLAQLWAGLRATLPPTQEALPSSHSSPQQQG


What was measured:
[1] = biological target: T1, IL-18 receptor (IL-18Rα/IL-18Rβ) on …; assay: cell-based or functional assay
[2] = biological target: T1, IL-18 receptor (IL-18Rα/IL-18Rβ) on …; assay: cell-based or functional assay; remark: listed apart in the source
human IL-18BP-His [3] = biological target: T2, human IL-18BP-His; assay: AlphaLISA of free IL-18BP after incubation with IL-18BP-His
Procedure: Under subdued light, 12.5 µl of pre-mixed Donor beads were added, followed by a short centrifugation step at 150 g, and incubated for 30 minutes at 20° C. under shaking at 750 rpm with no light. AlphaLisa signal was then measured on an Enspire plate reader (Perkin Elmer) using 680 and 615 nm as excitation and emission wavelengths respectively.

[4] = biological target: T1, IL-18 receptor (IL-18Rα/IL-18Rβ) on …; assay: cell-based or functional assay; remark: listed apart in the source
human IL-18BP-His [5] = biological target: T2, human IL-18BP-His; assay: AlphaLISA of free IL-18BP
Procedure: The plate is incubated further for 1 hr at room temperature. Under subdued light, 12.5 µL of 2× streptavidin (SA) donor beads are pipetted into each well, and the wells are incubated with shaking for an additional 30 min at room temperature. The AlphaLisa signal is then measured on an Enspire plate reader with 680 and 615 nm as excitation and emission wavelengths, respectively. The dissociation constant (K_D) is calculated based on a variable slope, four parameter analysis using GraphPad PRISM software.

[6] = biological target: T1, IL-18 receptor (IL-18Rα/IL-18Rβ) on …; assay: cell-based or functional assay; remark: listed apart in the source

Binder | EC50, IFNγ stimulation, NK92 cells [4] | Kd (human IL-18BP-His [5]) | further results
IL-18 polypeptide of SEQ ID NO: 31 (C38A, C76A, C127A) (ligand) not shown | – | – | EC50, IFNγ secretion, NK92 cells [1]: 0.103 nM; EC50, IFNγ secretion, PD-1 positive KG-1 cells [2]: 0.135 nM; EC50, IFNγ secretion, parental KG-1 cells [2]: 0.148 nM; Kd (human IL-18BP-His [3]): 0.103 nM
IL-18 polypeptide of SEQ ID NO: 36 (K53A) (ligand) not shown | 0.444 nM | 514 nM | –
IL-18 polypeptide of SEQ ID NO: 37 (S55A) (ligand) not shown | 0.108 nM | 10.7 nM | –
IL-18 polypeptide of SEQ ID NO: 38 (E06K) (ligand) not shown | 0.0567 nM | 0.13 nM | –
IL-18 polypeptide of SEQ ID NO: 39 (E06K, K53A) (ligand) not shown | 0.0192 nM | 130 nM | EC50, HEK-Blue IL18R reporter cells [6]: 0.00072 nM
IL-18 polypeptide of SEQ ID NO: 40 (E06K, S55A) (ligand) not shown | 0.067 nM | 12.3 nM | –
IL-18 polypeptide of SEQ ID NO: 41 (K53A, S55A) (ligand) not shown | 1.58 nM | 500 nM | –
IL-18 polypeptide of SEQ ID NO: 51 (T63A) (ligand) not shown | 0.449 nM | 2.59 nM | –
IL-18 polypeptide of SEQ ID NO: 52 (E06K, T63A) (ligand) not shown | 0.011 nM | 0.83 nM | –
IL-18 polypeptide of SEQ ID NO: 53 (K53A, T63A) (ligand) not shown | 0.155 nM | 198 nM | –
Composition D (LZM-009 conjugated to IL-18 polypeptide of SEQ ID NO: 31) (other, chemical linker to the antibody; site not stated; chemical linker to IL-18; site not stated) VH: QVQLVQSGAEVKKPGASVKVSCKASGYTFTSYYMYWVRQAPGQGLEWMGGVNPSNGGTNFNEKFKSRVTITADKSTSTAYMELSSLRSEDTAVYYCARRDYRYDMGFDYWGQGTTVTVSS VL: EIVLTQSPATLSLSPGERATISCRASKGVSTSGYSYLHWYQQKPGQAPRLLIYLASYLESGVPARFSGSGSGTDFTLTISSLEPEDFATYYCQHSRELPLTFGTGTKVEIK [about 150 residues not printed] | – | – | EC50, IFNγ secretion, NK92 cells [1]: 0.471 nM; EC50, IFNγ secretion, PD-1 positive KG-1 cells [2]: 0.0225 nM; EC50, IFNγ secretion, parental KG-1 cells [2]: 0.203 nM
